Laboratory results from article PMC9911399, “Two distinct binding modes provide the RNA-binding protein RbFox with extraordinary sequence specificity”.
Numbering of substitutions follows the chain as printed; changes in the protein carry UniProt numbers. Some of the results follow.

T1: RBFOX1 RRM (Homo sapiens, UniProt Q9NWB1 109-208)
T1 sequence: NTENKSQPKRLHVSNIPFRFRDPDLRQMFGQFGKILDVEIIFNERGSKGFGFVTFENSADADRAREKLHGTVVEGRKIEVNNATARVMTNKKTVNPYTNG

B1: AUCGGUG (DNA:RNA)
RNA: GGGAGACCGGAAUUCAGAUUGUCCAUCGGUGUUAAAUCCCGUCGUAGCCACCA
DNA 1: CAATCTGAATTCCGGTCTCCC
DNA 2: TGGTGGCTACGACGGGATT
B2: GCAUCCA (DNA:RNA)
RNA: GGGAGACCGGAAUUCAGAUUGUCCGCAUCCAUUAAAUCCCGUCGUAGCCACCA
DNA 1: CAATCTGAATTCCGGTCTCCC
DNA 2: TGGTGGCTACGACGGGATT
B3: UCAUGGU (DNA:RNA)
RNA: B2 RNA with G25U, C29G, C30G, A31U
DNA 1: CAATCTGAATTCCGGTCTCCC
DNA 2: TGGTGGCTACGACGGGATT
B4: AUGGAUA (DNA:RNA)
RNA: B1 RNA with C27G, G29A, G31A
DNA 1: CAATCTGAATTCCGGTCTCCC
DNA 2: TGGTGGCTACGACGGGATT
B5: AAGUUCA (DNA:RNA)
RNA: B2 RNA with G25A, C26A, A27G, C29U
DNA 1: CAATCTGAATTCCGGTCTCCC
DNA 2: TGGTGGCTACGACGGGATT
B6: CGCAUAC (DNA:RNA)
RNA: B1 RNA with A25C, U26G, G28A, G29U, U30A, G31C
DNA 1: CAATCTGAATTCCGGTCTCCC
DNA 2: TGGTGGCTACGACGGGATT
B7: CAAUCAU (DNA:RNA)
RNA: B2 RNA with G25C, C26A, C30A, A31U
DNA 1: CAATCTGAATTCCGGTCTCCC
DNA 2: TGGTGGCTACGACGGGATT
B8: GCGUACG (DNA:RNA)
RNA: B2 RNA with A27G, C29A, A31G
DNA 1: CAATCTGAATTCCGGTCTCCC
DNA 2: TGGTGGCTACGACGGGATT
B9: GUAAACU (DNA:RNA)
RNA: B2 RNA with C26U, U28A, C29A, A31U
DNA 1: CAATCTGAATTCCGGTCTCCC
DNA 2: TGGTGGCTACGACGGGATT
B10: GAAACUU (DNA:RNA)
RNA: B2 RNA with C26A, U28A, C30U, A31U
DNA 1: CAATCTGAATTCCGGTCTCCC
DNA 2: TGGTGGCTACGACGGGATT
B11: GCCGGAG (DNA:RNA)
RNA: B1 RNA with A25G, U26C, U30A
DNA 1: CAATCTGAATTCCGGTCTCCC
DNA 2: TGGTGGCTACGACGGGATT
B12: UAAUUAA (DNA:RNA)
RNA: B2 RNA with G25U, C26A, C29U, C30A
DNA 1: CAATCTGAATTCCGGTCTCCC
DNA 2: TGGTGGCTACGACGGGATT
B13: GAAGCGG (DNA:RNA)
RNA: B2 RNA with C26A, U28G, C30G, A31G
DNA 1: CAATCTGAATTCCGGTCTCCC
DNA 2: TGGTGGCTACGACGGGATT
B14: UUCCCUA (DNA:RNA)
RNA: B1 RNA with A25U, G28C, G29C, G31A
DNA 1: CAATCTGAATTCCGGTCTCCC
DNA 2: TGGTGGCTACGACGGGATT
B15: UGCAGUC (DNA:RNA)
RNA: B1 RNA with A25U, U26G, G28A, G31C
DNA 1: CAATCTGAATTCCGGTCTCCC
DNA 2: TGGTGGCTACGACGGGATT
B16: CCGUUCU (DNA:RNA)
RNA: B2 RNA with G25C, A27G, C29U, A31U
DNA 1: CAATCTGAATTCCGGTCTCCC
DNA 2: TGGTGGCTACGACGGGATT
B17: GUGUUCU (DNA:RNA)
RNA: B2 RNA with C26U, A27G, C29U, A31U
DNA 1: CAATCTGAATTCCGGTCTCCC
DNA 2: TGGTGGCTACGACGGGATT
B18: AAAGCAG (DNA:RNA)
RNA: B1 RNA with U26A, C27A, G29C, U30A
DNA 1: CAATCTGAATTCCGGTCTCCC
DNA 2: TGGTGGCTACGACGGGATT
B19: CGAUAUG (DNA:RNA)
RNA: B1 RNA with A25C, U26G, C27A, G28U, G29A
DNA 1: CAATCTGAATTCCGGTCTCCC
DNA 2: TGGTGGCTACGACGGGATT
B20: UGUAGUG (DNA:RNA)
RNA: B1 RNA with A25U, U26G, C27U, G28A
DNA 1: CAATCTGAATTCCGGTCTCCC
DNA 2: TGGTGGCTACGACGGGATT
B21: GAAGAGC (DNA:RNA)
RNA: B2 RNA with C26A, U28G, C29A, C30G, A31C
DNA 1: CAATCTGAATTCCGGTCTCCC
DNA 2: TGGTGGCTACGACGGGATT
B22: CGUAGUU (DNA:RNA)
RNA: B1 RNA with A25C, U26G, C27U, G28A, G31U
DNA 1: CAATCTGAATTCCGGTCTCCC
DNA 2: TGGTGGCTACGACGGGATT
B23: GGCAAAA (DNA:RNA)
RNA: B2 RNA with C26G, A27C, U28A, C29A, C30A
DNA 1: CAATCTGAATTCCGGTCTCCC
DNA 2: TGGTGGCTACGACGGGATT
B24: ACGAAUA (DNA:RNA)
RNA: B1 RNA with U26C, C27G, G28A, G29A, G31A
DNA 1: CAATCTGAATTCCGGTCTCCC
DNA 2: TGGTGGCTACGACGGGATT
B25: GUAAUUU (DNA:RNA)
RNA: B1 RNA with A25G, C27A, G28A, G29U, G31U
DNA 1: CAATCTGAATTCCGGTCTCCC
DNA 2: TGGTGGCTACGACGGGATT
B26: AUUCAUG (DNA:RNA)
RNA: B1 RNA with C27U, G28C, G29A
DNA 1: CAATCTGAATTCCGGTCTCCC
DNA 2: TGGTGGCTACGACGGGATT
B27: GAUUUGU (DNA:RNA)
RNA: B2 RNA with C26A, A27U, C29U, C30G, A31U
DNA 1: CAATCTGAATTCCGGTCTCCC
DNA 2: TGGTGGCTACGACGGGATT
B28: UCGCACU (DNA:RNA)
RNA: B2 RNA with G25U, A27G, U28C, C29A, A31U
DNA 1: CAATCTGAATTCCGGTCTCCC
DNA 2: TGGTGGCTACGACGGGATT
B29: UUUGACU (DNA:RNA)
RNA: B1 RNA with A25U, C27U, G29A, U30C, G31U
DNA 1: CAATCTGAATTCCGGTCTCCC
DNA 2: TGGTGGCTACGACGGGATT
B30: GAUCCAU (DNA:RNA)
RNA: B2 RNA with C26A, A27U, U28C, C30A, A31U
DNA 1: CAATCTGAATTCCGGTCTCCC
DNA 2: TGGTGGCTACGACGGGATT
B31: CGCCAGG (DNA:RNA)
RNA: B1 RNA with A25C, U26G, G28C, G29A, U30G
DNA 1: CAATCTGAATTCCGGTCTCCC
DNA 2: TGGTGGCTACGACGGGATT

target: T1, RBFOX1 RRM; test: EMSA; HiTS-Eq, 1 nM pool, 10 min; buffer printed only for the single-RNA assays: 10 mM Tris pH 7.5, 150 mM NaCl, 3.4 mM EDTA, 0.001% NP-40, 30 C; conditions: tags: His6 N-terminal (pET28a); label: 5' 32P
How it was run: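 These values rest on relative association constants, computed from read-count changes of each RNA species versus the control reaction and normalised to the cognate motif. Reads came from free RNA recovered by 8% native PAGE after purified RbFox RRM (wild type or mutant) at increasing concentrations was equilibrated for 10 min in 50 µL with 1 nM of a 5′-radiolabelled pool with 7 randomized nucleotides and DNA-annealed flanks.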

Binder	binding signal
B1	0.0182 KA relative to UGCAUGU
B2	0.0224 KA relative to UGCAUGU
B3	0.0123 KA relative to UGCAUGU
B4	0.0112 KA relative to UGCAUGU
B5	0.00423 KA relative to UGCAUGU
B6	0.0068 KA relative to UGCAUGU
B7	0.000223 KA relative to UGCAUGU
B8	0.0138 KA relative to UGCAUGU
B9	0.00365 KA relative to UGCAUGU
B10	0.00505 KA relative to UGCAUGU
B11	0.0113 KA relative to UGCAUGU
B12	0.00562 KA relative to UGCAUGU
B13	0.014 KA relative to UGCAUGU
B14	0.00517 KA relative to UGCAUGU
B15	0.0191 KA relative to UGCAUGU
B16	0.0107 KA relative to UGCAUGU

Binder	binding signal
B17	0.0169 KA relative to UGCAUGU
B18	0.00469 KA relative to UGCAUGU
B19	0.0124 KA relative to UGCAUGU
B20	0.0216 KA relative to UGCAUGU
B21	0.013 KA relative to UGCAUGU
B22	0.00919 KA relative to UGCAUGU
B23	0.00604 KA relative to UGCAUGU
B24	0.00301 KA relative to UGCAUGU
B25	0.00581 KA relative to UGCAUGU
B26	0.00382 KA relative to UGCAUGU
B27	0.0225 KA relative to UGCAUGU
B28	0.01 KA relative to UGCAUGU
B29	0.0155 KA relative to UGCAUGU
B30	0.00442 KA relative to UGCAUGU
B31	0.0105 KA relative to UGCAUGU
